According to PMC4336329 (PLoS ONE, 2015):
The campaign covered roughly 310,000 compounds. About 14,000 (4.5%) showed an effect of 50% or more. The effect is printed as a negative number. Some of the results follow.

Target: human ether-à-go-go-related gene (hERG) potassium channel (human, UniProt Q12809)
Assay: primary screen, population patch clamp on CHO cells stably expressing hERG
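Further: peak tail current of the secondary pulse compared with the same well before compound.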

human ether-à-go-go-related gene (hERG) potassium channel, sequence (Q12809 whole entry, looked up): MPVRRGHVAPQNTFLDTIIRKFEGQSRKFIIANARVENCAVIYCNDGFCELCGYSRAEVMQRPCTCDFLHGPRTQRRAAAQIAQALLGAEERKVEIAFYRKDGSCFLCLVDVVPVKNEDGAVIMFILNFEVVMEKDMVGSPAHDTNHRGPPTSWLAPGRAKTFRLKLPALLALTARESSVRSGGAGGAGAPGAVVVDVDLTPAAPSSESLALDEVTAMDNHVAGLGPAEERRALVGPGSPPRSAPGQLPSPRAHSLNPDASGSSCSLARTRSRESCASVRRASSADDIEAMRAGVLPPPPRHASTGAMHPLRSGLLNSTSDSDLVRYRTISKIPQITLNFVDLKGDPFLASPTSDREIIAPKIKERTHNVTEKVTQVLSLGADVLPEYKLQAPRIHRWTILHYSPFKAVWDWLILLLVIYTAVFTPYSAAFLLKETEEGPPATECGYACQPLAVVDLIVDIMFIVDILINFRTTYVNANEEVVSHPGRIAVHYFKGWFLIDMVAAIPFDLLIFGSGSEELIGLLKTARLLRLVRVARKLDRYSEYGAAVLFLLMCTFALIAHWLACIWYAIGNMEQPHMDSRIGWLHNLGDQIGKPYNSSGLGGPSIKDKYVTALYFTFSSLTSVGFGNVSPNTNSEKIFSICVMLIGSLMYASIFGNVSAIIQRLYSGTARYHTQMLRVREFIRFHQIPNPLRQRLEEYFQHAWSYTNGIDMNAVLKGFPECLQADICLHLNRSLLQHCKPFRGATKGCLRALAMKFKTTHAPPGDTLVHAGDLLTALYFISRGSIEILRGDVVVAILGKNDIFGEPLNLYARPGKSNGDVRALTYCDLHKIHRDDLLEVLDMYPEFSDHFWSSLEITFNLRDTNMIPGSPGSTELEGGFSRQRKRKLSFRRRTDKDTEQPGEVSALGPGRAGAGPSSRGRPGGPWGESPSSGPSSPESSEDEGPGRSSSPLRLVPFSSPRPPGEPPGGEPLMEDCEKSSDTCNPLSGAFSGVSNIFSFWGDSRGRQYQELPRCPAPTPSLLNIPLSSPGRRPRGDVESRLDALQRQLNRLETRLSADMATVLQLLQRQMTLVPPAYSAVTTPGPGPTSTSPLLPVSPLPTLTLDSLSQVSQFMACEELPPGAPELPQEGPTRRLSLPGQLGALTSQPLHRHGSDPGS

SMILES	hERG current change (%, negative = inhibition) at 10uM [%]
Cc1ccc(/C=N/NC(=O)CSc2nnc(-c3ccccc3)n2-c2ccc(Cl)cc2)o1	-21.8
Cc1cc(C(=O)COC(=O)c2ccc(O)cc2)c(C)n1CCc1ccc(F)cc1	-14
O=C(c1nc[nH]c1C(=O)N1CCc2ccccc2C1)N1CCc2ccccc2C1	16
NC1=NS(=O)(=O)NC1c1ccc(Cl)cc1 (stereo not drawn)	7.49
N#Cc1ccc(Sc2nc3ccccc3[nH]2)cc1C#N	-22.2
O=C(NCc1ccccn1)C1CCN(S(=O)(=O)N2CCCC2)CC1	-8.11
CCOC(=O)c1cccc(NC(=S)N2CCN(c3ncc4c(=O)c(C(=O)O)cn(CC)c4n3)CC2)c1	21.7
CCCn1nnc(NC(=O)c2ccco2)n1	-0.845
O=C(COC(=O)C1CCCN1C(=O)C12CC3CC(CC(C3)C1)C2)c1ccc(Br)cc1 (stereo not drawn)	18.2
Cc1cccc(N(C)C(=O)c2cnn(-c3ccccc3)c2C)c1	1.18
O=C(Nc1ccc(N2CCN(C(=O)c3ccco3)CC2)cc1)C(c1ccccc1)c1ccccc1	-11
COc1cc(C(=O)Nc2cccc(C)c2C)ccc1OCC(=O)N1CCOCC1	2.28
Cc1cccc(OCCn2c(NC(=O)c3ccco3)nc3ccccc32)c1	12.5
O=C(NNC1=NC2(CCCC2)Cc2ccccc21)c1cccnc1	38
COCCSc1nnc(NC(=O)C2CCN(C(=O)c3ccco3)CC2)s1	4.57
O=C(O)C/C(=C\c1cccc(NC(=O)c2ccccc2Cl)c1)c1nc2ccccc2s1	-6.18
O=S(=O)(Nc1ccccc1)c1ccc(-c2cnc(C3CC3)o2)cc1	6.13
O=C(CSCc1ccccc1)NCc1ccc2c(c1)OCO2	-20.3
CN(C(=O)COC(=O)c1cc(S(=O)(=O)N2CCOCC2)ccc1F)C1CCS(=O)(=O)C1 (stereo not drawn)	11.7
CC1CN(S(=O)(=O)c2cc(C(=O)N(CCc3ccccc3)Cc3ccccc3)ccc2Cl)CC(C)O1 (stereo not drawn)	-2.24
Cl.O=C1c2cccc3cccc(c23)C(=O)N1CCN1CCN(CC(O)COCc2ccc(Cl)cc2)CC1 (stereo not drawn)	-72.5

SMILES	hERG current change (%, negative = inhibition) at 10uM [%]
CS(=O)(=O)Oc1ccc2c(c1)O/C(=C\c1cccc([N+](=O)[O-])c1)C2=O	1.59
Cc1ccc(S(=O)(=O)Nc2ccccn2)cc1[N+](=O)[O-]	15
COc1ccc(S(=O)(=O)N2CCN(C(=O)NCc3ccc(OC)c(OC)c3)CC2)cc1	9.37
COc1ccc(-n2c(O)c(/C=N/Nc3nc(C)cc(C)n3)c3ccccc3c2=O)cc1OC	14.6
O=C1NC(NS(=O)(=O)c2ccc(Cl)cc2)(C(F)(F)F)C(=O)N1c1ccccc1 (stereo not drawn)	3.95
Fc1ccc(CSc2nnc3ccc(-c4ccncc4)nn23)cc1	-70.1
O=C(NCCCn1ccnc1)c1ccc(Cl)c(S(=O)(=O)N2CCOCC2)c1	-4.59
Cc1ncc([N+](=O)[O-])n1S(=O)(=O)c1cc(Cl)ccc1Cl	18.3
CC(Sc1nc2sccc2c(=O)n1-c1ccccc1)C(N)=O (stereo not drawn)	6.66
O=c1[nH]c(C2CCN(S(=O)(=O)c3ccccc3)CC2)nc2c1nnn2Cc1c(F)cccc1Cl	-2.84
COCc1[nH]nc2c1C(c1sccc1C)C(C#N)=C(N)O2 (stereo not drawn)	-3.66
FC(F)(F)c1cc(C(F)(F)F)c2ccc(Oc3ccccc3)nc2n1	-4.18
COC(=O)c1sc(SC)c(S(=O)(=O)C(C)C)c1N/N=C(\C#N)S(=O)(=O)c1ccccn1	4.87
Cc1cc(C)c2c(N)c(C(=O)Nc3ccc(F)cc3)sc2n1	13.2
COc1ccccc1NC(=O)C1C2C=CC(O2)C1C(=O)O (stereo not drawn)	-0.963
CCOC(=O)C1=C(O)C(=O)N(Cc2ccccc2)C1	20.6
CCN(CC)S(=O)(=O)c1ccc(C(=O)Nc2nnc(NC(=S)Nc3ccccc3)s2)cc1	9.51
COc1ccc(C(=O)NCC(=O)N2CCC3(CC2)NCCc2[nH]cnc23)cc1	11.4
CCc1cc(CNC(=O)CC2C(=O)NCCN2Cc2cccc(OC)c2)on1 (stereo not drawn)	-11.4
CCC(c1nc2ccccc2c(=O)n1CCCn1ccnc1)N1C(=O)c2ccccc2C1=O (stereo not drawn)	-38.8
CC(=O)N(Cc1ccccc1)c1nc(-c2ccccc2)cs1	6.74

SMILES	hERG current change (%, negative = inhibition) at 10uM [%]
CCOc1ccc(S(=O)(=O)N(CC(=O)NC2CCCC2)c2ccc(F)cc2)cc1	10.8
Fc1ccc(-c2nnc(NC3=NCCCCC3)o2)cc1	-15.1
COc1ccccc1N1CCN(C2CCCN(C(=O)CCc3c(C)noc3C)C2)CC1 (stereo not drawn)	-7.57
c1cncc(-c2nc(NCc3ccco3)c3ccccc3n2)c1	-5.1
CCC(CC)C(=O)NCCc1cc2ccc(OC)cc2[nH]c1=O	-3.48
CN(C)CCCNC(NC(=O)/C=C/c1ccccc1)C(Cl)(Cl)Cl (stereo not drawn)	1.11
O=C(c1ccc(N2CCN(C(=O)c3ccc(F)cc3F)CC2)cc1)c1cccc(F)c1	-24.1
CCO[C@H]1OC(C(=O)NCc2ccccc2)=C[C@@H](C(C)(C)C)[C@@H]1CCCO	0.338
CCOc1ccc(/C=C2/C(=N)N3OC(C)=CC3=NC2=O)cc1OC	14.8
C#C[C@]1(O)CC[C@H]2[C@@H]3CCc4cc(OC)ccc4[C@H]3CC[C@@]21C	24.9
Cc1ccc(C2=CC(c3ccc(N(C)C)cc3)n3nnnc3N2)cc1 (stereo not drawn)	10.4
O=C(NCc1ccco1)c1cnn2c(C(F)(F)F)cc(-c3ccccc3)nc12	-0.784
CCC(CC)c1nnc(NC(=O)CCNC(=O)c2ccccc2Cl)s1	-14.5
O=C(CN1CCN(Cc2ccc(Cl)cc2)C1=O)N1CCC2(CC1)OCCO2	-12.5
CC(=O)OCc1c(C)cc(C)c(/C=C(/C#N)C(N)=O)c1C	17.4
S=C(NCCc1ccccn1)Nc1ccc(Cl)c(Cl)c1	13.4
O=C(COc1ccc(Cl)cc1)N1CCN(C/C=C/c2ccccc2)CC1	-70.7
COc1ccc(CNc2ncnc3c2[nH]c2cc(OC)c(OC)cc23)cc1	8.4
CCCNC(=O)OC[C@H]1O[C@H](CCO/N=C/c2ccc(C(=O)N3[C@H](c4ccc(C)cc4)[C@@H](C)CC[C@H]3C(=O)OC)cc2)C=C[C@@H]1Oc1ccc(OC)cc1	5.48
CN1CCN(C(=O)CC23CC4CC(CC(C4)C2)C3)CC1	-2.65
CN(C)C(=O)COc1ccc(S(=O)(=O)c2ccc(OCC(=O)N(C)C)cc2)cc1	22.9

SMILES	hERG current change (%, negative = inhibition) at 10uM [%]
COc1cc(OC)cc(C(=O)O/N=C(\N)c2ccncc2)c1	-0.197
O=C(c1ccc(S(=O)(=O)c2ccc(F)cc2)c([N+](=O)[O-])c1)N1CCCCCC1	-11.6
Cc1ccc(C)c(S(=O)(=O)NCCOc2nc(NC(C)C)nc(NC(C)C)n2)c1	-32.7
Cc1cc(OC(=O)c2cccc(C(F)(F)F)c2)c([N+](=O)[O-])c(=O)[nH]1	8.41
COCCn1cc(C(=O)N2CCCC(C)C2)c2c3ccccc3n(C)c2c1=O (stereo not drawn)	13.5
COc1ccc(NC(=O)Cn2nnc(C(=O)NCc3ccccc3)c2N)c(OC)c1	-3.13
CCc1nc(SCc2cc(Cl)ccc2OC)n[nH]1	5.74
CC1=C(C(=O)Nc2ccccc2C(=O)NC2CCCCC2)SCCO1	2.8
CCOC(=O)c1cnc(SCC(=O)N2CCOCC2)nc1N	16.4
CCOc1ccc(C(C)=O)cc1CN1C(=O)NC2(CCCCCC2)C1=O	3.83
Cc1ccc2c(c1)cc(C(=O)N1CCN(c3ccccn3)CC1)n2C	5.77
Cn1c2c(c(=O)n(C)c1=O)C(c1ccccc1Cl)CC(=O)N2 (stereo not drawn)	13.1
CCn1c(=O)n(CCc2ccccc2)c(=O)c2c3c(sc21)CCCC3	1.05
Cc1ccc(-n2c(-c3ccc(Cl)cc3)c[n+]3c2CCC3)cc1.[Br-]	-62.4
CCN1C(=O)C(O)(CC(=O)c2ccc3c(c2)OCCO3)c2ccccc21 (stereo not drawn)	0.774
COc1cc(CN2CCCC(C(=O)c3ccc4c5c(cccc35)CC4)C2)cc(OC)c1O (stereo not drawn)	-53
O=C(Cc1ccc(Br)cc1)OCC(=O)c1ccc2c(c1)OCCO2	13.1
COc1ccc(C(=O)N2CCC(C(=O)NC3CC3)CC2)cc1	4.25
CCCCN1C(=O)CCC(C(=O)O)C1c1ccccc1 (stereo not drawn)	-2.13
C/C(CC(=O)Nc1ccccc1Cl)=N\NC(=O)C(=O)NCCO	6.65
CCOC(=O)c1c(NC(=O)C2CC(Cl)=CCC2C(=O)O)sc2c1CCCCC2 (stereo not drawn)	0.267
